Experiments:
MPZ-ecto peptide = biological target: T1, MPZ-ecto peptide (human); test: other fluorescence titration; fluorescence de-quenching: AlexaFluor647-DR5L ECD (200 nM) pre-incubated with 100 μM or 200 μM MPZ-ecto peptide, increasing concentrations of unlabeled DR5L ECD; conditions: both partners purified
T1 construct: stretch of the ectodomain of human myelin protein zero; The array spots are 18-residue peptides; also called spots C18-C19 of the peptide array; source: synthetic peptide, GenScript (>95% purity); as spots C18-C19 on the peptide array of the MIT Biopolymers Laboratory
T1 peptide: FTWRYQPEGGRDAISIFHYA

[1] = biological target: the molecule itself; test: cross-linking; 10 μM FLAG-tagged DR5L ECD without peptide, 100 μM BS3 for 20 min at RT, 20 mM HEPES pH 7.2, 150 mM NaCl; anti-FLAG blot

B1: unlabeled DR5L ECD (domain or fragment)
chain: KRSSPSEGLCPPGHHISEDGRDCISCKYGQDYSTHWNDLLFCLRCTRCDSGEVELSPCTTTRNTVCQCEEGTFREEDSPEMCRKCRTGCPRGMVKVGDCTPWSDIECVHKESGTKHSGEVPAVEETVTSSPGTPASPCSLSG
notes: human DR5 ECD, long isoform, […]; also called unlabeled DR5 ECD; source: SF21 (baculovirus), secreted, purified (HisTrapFF, SuperDex200)
B1: binds (MPZ-ecto peptide).

B2: FLAG-tagged DR5 long isoform ECD (domain or fragment)
chain: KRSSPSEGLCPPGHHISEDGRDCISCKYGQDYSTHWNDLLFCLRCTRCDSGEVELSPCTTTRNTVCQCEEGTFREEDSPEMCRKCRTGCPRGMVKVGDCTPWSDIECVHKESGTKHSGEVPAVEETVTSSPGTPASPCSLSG
notes: human DR5 ECD, long isoform, […]; Dimer without peptide by cross-linking; multimers with peptide; also called FLAG-tagged DR5L ECD; recombinant DR5L ECD; source: SF21 (baculovirus), secreted, purified (HisTrapFF, SuperDex200); not shown: FLAG, C-terminal, kept
B2 was tested, and the “stoichiometry N” value [1] was 2.
